± gives the uncertainty stated by the source. The sequences are guide strands of siRNAs; only the seed at positions 2 to 7 varies.
Tests used:
[1] = system: 3LL; experiment: cell viability relative to siNT1 control; higher = less toxic; details: concentration: 10 nM; 96 h; Mus musculus;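 also: Luminescence-based viability of cells reverse transfected in 384-well plates with lipid-complexed siRNAs built on a non-toxic 19mer backbone whose passenger strand carries 2′-O-methyl groups at positions 1 and 2, triplicates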
[2] = system: M565; experiment: cell viability relative to lipid-only control; HeyA8 human ovarian and H460 human lung cancer; M565 mouse liver and 3LL mouse lung cancer; siNT1 is a non-toxic control siRNA; higher = less toxic; details: concentration: 10 nM; 96 h; Mus musculus
Method: (§1)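 Arrayed screen of 4096 siRNA duplexes, each carrying one of all possible 6mer seeds at guide-strand positions 2-7 in a fixed neutral 19mer scaffold (constant flanks: U at position 1, then ACAUGUAAACCA, plus a 3' AA overhang). The passenger strand is 2'-O-methylated at positions 1-2 so only the guide strand loads into RISC. Duplexes were reverse-transfected at 10 nM with RNAiMAX in triplicate in 384-well plates; viability was read by CellTiter-Glo ATP content 96 h after transfection. Values are % viability normalised to lipid-only wells (HeyA8, H460, M565) or to siNT1 (3LL).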

[3] = system: HeyA8; experiment: as above; details: concentration: 10 nM; 96 h; Homo sapiens
Method: as §1

[4] = system: H460; experiment: as above; details: concentration: 10 nM; 96 h; Homo sapiens
Method: as §1
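For cell viability relative to lipid-only control in this document: reverse lipid transfection in 384-well plates, in triplicate, of duplexes on a non-toxic 19mer backbone with passenger strand 2′-O-methylated at positions 1 and 2, luminescence viability read-out.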

Sequence	cell viability [1] [%]	cell viability [2] [%]	cell viability [3] [%]	cell viability [4] [%]
UCGGGCGACAUGUAAACCAAA	84.2 ± 23	47.8 ± 3.5	37.2 ± 4.1	41.7 ± 4.9
UGUACACACAUGUAAACCAAA	79.5 ± 5.7	49.8 ± 11	71.8 ± 9.2	80.5 ± 5.1
UAUCGAUACAUGUAAACCAAA	95.4 ± 21	89.5 ± 11	102 ± 7.5	114 ± 12
UCGGUCCACAUGUAAACCAAA	15.9 ± 4.4	8.37 ± 1.2	11.8 ± 0.23	14 ± 4.6
UGAACUCACAUGUAAACCAAA	63 ± 18	33.8 ± 1.4	8 ± 3.1	32.6 ± 1.9
UCGUAAAACAUGUAAACCAAA	102 ± 20	81.3 ± 5.6	89 ± 8.6	93.2 ± 22
UUGACUGACAUGUAAACCAAA	83.4 ± 5.4	100 ± 3.8	95.7 ± 6.1	86.5 ± 11
UCCGCAGACAUGUAAACCAAA	102 ± 29	37.3 ± 9.9	78 ± 2.3	58.8 ± 4.5
UUCGAUCACAUGUAAACCAAA	92.7 ± 14	65.1 ± 17	92.3 ± 9.9	70.5 ± 4.3
UAAGGUCACAUGUAAACCAAA	42.4 ± 3	10.6 ± 1.6	48.1 ± 5.2	57.5 ± 7.5
UUUAUCAACAUGUAAACCAAA	99.8 ± 7.4	87.1 ± 7.6	101 ± 6.3	67 ± 1.7
UGGUCCCACAUGUAAACCAAA	18.3 ± 1.5	8.36 ± 0.18	29.9 ± 5.3	16.4 ± 1.3
UAUGGGUACAUGUAAACCAAA	72.9 ± 8.3	27 ± 5.2	48.3 ± 5.5	46.6 ± 4.8
UUAUCAAACAUGUAAACCAAA	65.9 ± 9.2	76.4 ± 6.4	94.6 ± 3.8	72.8 ± 9.3
UAUAUCGACAUGUAAACCAAA	99 ± 14	74.8 ± 8.1	98.7 ± 9.7	71.7 ± 14
UUCAGAAACAUGUAAACCAAA	102 ± 13	82.3 ± 7.9	73.4 ± 14	59.3 ± 0.66
UGCAAGGACAUGUAAACCAAA	45.9 ± 9.8	19.2 ± 1.5	56.7 ± 12	64.2 ± 8.4
UUUGGCAACAUGUAAACCAAA	69.1 ± 6.9	41.4 ± 7.5	100 ± 4.5	79.8 ± 8.6
UUCCCUCACAUGUAAACCAAA	33.7 ± 6.8	45.3 ± 4.3	48.5 ± 2.4	36.9 ± 4.2

Sequence	cell viability [1] [%]	cell viability [2] [%]	cell viability [3] [%]	cell viability [4] [%]
UCACAGAACAUGUAAACCAAA	91.8 ± 14	48.2 ± 7.9	87.7 ± 4	17.4 ± 3.3
UAGCGCCACAUGUAAACCAAA	81.3 ± 3	54.1 ± 6.3	53.7 ± 4.4	56.9 ± 8.7
UCUCUGGACAUGUAAACCAAA	55.3 ± 5.8	9.64 ± 1.7	63.6 ± 2.9	34.8 ± 2.7
UUCGAACACAUGUAAACCAAA	94.1 ± 14	70.3 ± 14	78.5 ± 11	76.7 ± 2.4
UAAGCCCACAUGUAAACCAAA	15.3 ± 5.4	24.2 ± 3.5	52.3 ± 11	58.1 ± 10
UGGCAAAACAUGUAAACCAAA	72.1 ± 5.2	52.4 ± 8.1	34.7 ± 2.2	72.1 ± 4.5
UUUCUCAACAUGUAAACCAAA	103 ± 9.5	75.1 ± 13	96.6 ± 1.9	43.1 ± 2.9
UUCGUUCACAUGUAAACCAAA	66.1 ± 14	32.9 ± 2.8	59.1 ± 5.2	61.7 ± 0.74
UGGGAGAACAUGUAAACCAAA	11.8 ± 3.3	28.7 ± 4.6	2.29 ± 0.22	21.5 ± 0.97
UUCGAAUACAUGUAAACCAAA	103 ± 29	73 ± 8.8	99.5 ± 13	73.1 ± 4.7
UUACUCAACAUGUAAACCAAA	81.7 ± 5.8	31.5 ± 2.4	59.6 ± 1.4	71.9 ± 2.7
UGACUGUACAUGUAAACCAAA	39 ± 10	44.3 ± 6.4	30.9 ± 0.41	21.2 ± 2.9
UCCGAAAACAUGUAAACCAAA	104 ± 27	78 ± 8.9	96.3 ± 16	79.5 ± 14
UCACAACACAUGUAAACCAAA	88.7 ± 17	65.4 ± 7.3	74.5 ± 2.9	23.8 ± 1.1
UCUUAGCACAUGUAAACCAAA	79.9 ± 17	47 ± 10	50.3 ± 9.6	59.5 ± 1.7
UUCCGGAACAUGUAAACCAAA	82.5 ± 23	68.9 ± 8.4	94.2 ± 14	86.3 ± 5.2
UGACCAAACAUGUAAACCAAA	70.5 ± 10	25.8 ± 3	57.4 ± 14	67.3 ± 4.5
UCCAAUCACAUGUAAACCAAA	37.1 ± 6.4	58 ± 10	43.4 ± 0.76	65.7 ± 4.3
UGGCGGGACAUGUAAACCAAA	28.3 ± 8.4	27.7 ± 2.5	2.66 ± 0.38	10.2 ± 0.99

Sequence	cell viability [1] [%]	cell viability [2] [%]	cell viability [3] [%]	cell viability [4] [%]
UAGGUCCACAUGUAAACCAAA	11.2 ± 2.1	13.4 ± 0.87	27.1 ± 0.84	32.8 ± 12
UCGCUAGACAUGUAAACCAAA	96.2 ± 14	93.1 ± 11	91 ± 5.3	67 ± 8.8
UGUUAGGACAUGUAAACCAAA	27.7 ± 12	23.8 ± 4.2	41.3 ± 9.7	60.2 ± 3.9
UGUGUUGACAUGUAAACCAAA	82.1 ± 6	30.5 ± 6.7	26 ± 8.8	81.4 ± 3.9
UGAAUACACAUGUAAACCAAA	80.7 ± 10	78.7 ± 11	55.2 ± 3.8	57.4 ± 6.2
UGUCCCCACAUGUAAACCAAA	22.1 ± 1.1	3.86 ± 0.91	45.5 ± 2.9	35.9 ± 5.9
UUUAUCGACAUGUAAACCAAA	93.9 ± 11	77.6 ± 19	95.9 ± 4.9	83.7 ± 17
UAUAAGGACAUGUAAACCAAA	104 ± 15	89.9 ± 16	87.5 ± 8.3	80.6 ± 6.8
UUAUGUAACAUGUAAACCAAA	47.9 ± 7.7	65.7 ± 3.1	99.6 ± 7.5	76.5 ± 5.4
UAUGUUUACAUGUAAACCAAA	64.9 ± 11	91.4 ± 8.8	72.6 ± 3.9	52.1 ± 8.8
UAAUCAAACAUGUAAACCAAA	117 ± 16	79 ± 5	86.5 ± 1.9	66.3 ± 4
UUCGUCAACAUGUAAACCAAA	105 ± 15	75 ± 6.6	93.5 ± 16	76.1 ± 1.9
UAUACCGACAUGUAAACCAAA	114 ± 15	115 ± 12	95.3 ± 6.1	67.8 ± 6.9
UUUAUCUACAUGUAAACCAAA	99.2 ± 8.9	67.6 ± 8.8	92 ± 4.4	67.6 ± 8.1
UUACUACACAUGUAAACCAAA	67.7 ± 7.1	63.4 ± 16	75.4 ± 7.2	67 ± 7.5
UGUAGUAACAUGUAAACCAAA	88.5 ± 2.3	61.1 ± 5.3	11.7 ± 2.8	78 ± 4.5
UGCUUUGACAUGUAAACCAAA	53.6 ± 9.1	42.8 ± 2.5	40.3 ± 9.1	66.1 ± 5.7
UAGGGAGACAUGUAAACCAAA	77.3 ± 6.9	66.9 ± 14	65.7 ± 4.7	75.7 ± 3.5
UUAGCGGACAUGUAAACCAAA	58.4 ± 9.5	64.4 ± 10	92.6 ± 2.1	83 ± 2.3

Source: the supplement of paper PMC6206098
